Over roughly 33,000 sequences, “E-score (-0.5 to 0.5)” has its median near -0.036; the highest 2% begin near 0.37. This is one part of the list.

The target in this test is T1, Yer064c (UniProt P40041).
T1 sequence: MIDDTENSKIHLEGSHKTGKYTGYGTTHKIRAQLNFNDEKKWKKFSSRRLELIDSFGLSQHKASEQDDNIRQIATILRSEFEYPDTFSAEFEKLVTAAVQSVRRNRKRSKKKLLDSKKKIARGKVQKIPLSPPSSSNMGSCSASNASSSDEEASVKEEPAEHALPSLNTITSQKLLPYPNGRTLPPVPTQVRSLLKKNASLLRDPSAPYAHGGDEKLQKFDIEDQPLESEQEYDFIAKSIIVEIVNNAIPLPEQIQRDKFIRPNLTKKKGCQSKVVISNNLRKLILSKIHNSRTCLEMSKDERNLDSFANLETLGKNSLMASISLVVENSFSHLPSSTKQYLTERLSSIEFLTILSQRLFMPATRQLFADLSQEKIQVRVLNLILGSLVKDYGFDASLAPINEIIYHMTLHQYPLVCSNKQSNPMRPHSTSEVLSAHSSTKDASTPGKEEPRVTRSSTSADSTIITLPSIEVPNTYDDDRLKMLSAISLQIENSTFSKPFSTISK
Kind of test: PBM E-score (8-mer binding enrichment) (E-score (-0.5 to 0.5)); higher = stronger / more preferred TF binding; most listed sequences are background and not binding sites. The conditions noted are these: protein concentration: 200 nM; construct: GST-full length. The method, then: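 Universal 'all 10-mer' protein binding microarrays (Agilent AMADID 015681) probed with GST-tagged S. cerevisiae TFs (full-length or DBD) made by in vitro transcription/translation (PURExpress), about 100-200 nM. Bound TF was detected with fluorescent anti-GST. Each ungapped 8-mer (which stands for itself and its reverse complement) is scored by the PBM enrichment score (E-score), a modified Wilcoxon-Mann-Whitney statistic from -0.5 to +0.5, computed with the Universal PBM Analysis Suite. Scale: above 0.35 generally sequence-specific binding.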
Turning to AGTCCGAA, the “PBM E-score” value amounted to 0.262.

For ATAGTTGG, the “PBM E-score” value was 0.0164.

Take AATAAGAG: the “PBM E-score” value worked out at 0.151.

On to ACCGGGAC, for which the “PBM E-score” value was -0.0673.

On to GTGACGAA, for which the “PBM E-score” value was -0.0798.

Consider CCCAAGGG, for which the “PBM E-score” value was -0.291.

Take TATGCTCA: the “PBM E-score” value is -0.0042.

In the case of ATGTCCAA, the “PBM E-score” value was -0.202.

Consider TGCGTAAA, for which the “PBM E-score” value turned out to be 0.026.

On to GCTGTGAA, for which the “PBM E-score” value was -0.191.

Take CCTTGCAA: the “PBM E-score” value is -0.202.

ACAGGTTA: the “PBM E-score” value is -0.0305.

Turning to CCCAACCA, the “PBM E-score” value was determined as 0.0299.

Regarding ATTCAAAC, the “PBM E-score” value came out at 0.219.

For ACGGGAGA, the “PBM E-score” value is -0.123.

As to AGTAGTCG, the “PBM E-score” value was 0.381.

On to GTTCACCA, for which the “PBM E-score” value is -0.191.

In the case of AATTCATC, the “PBM E-score” value is -0.162.

As for AATGAGCA, the “PBM E-score” value is -0.0702.

Regarding AGCCCCAG, the “PBM E-score” value is -0.108.

As for GAAAACCC, the “PBM E-score” value was -0.202.

Regarding GCGAAGAC, the “PBM E-score” value is 0.126.

On to CGTTCTTC, for which the “PBM E-score” value is 0.00303.

CGGAAGTA: the “PBM E-score” value is -0.153.

On to GATAATAA, for which the “PBM E-score” value is -0.0817.

Consider CGGGCATC, for which the “PBM E-score” value was -0.154.

On to GATATTGC, for which the “PBM E-score” value is -0.325.

CCCCACCG: the “PBM E-score” value was -0.264.

With AGGTGCCG, the “PBM E-score” value is -0.257.

In the case of GCCGAAGC, the “PBM E-score” value was -0.126.

As to ATGCCCAG, the “PBM E-score” value is -0.137.

In the case of CGCTAAAC, the “PBM E-score” value turned out to be 0.0301.

For the sequence CAGTAAGC, the “PBM E-score” value was -0.0247.

For the sequence CCGTAGAG, the “PBM E-score” value is -0.209.

For the sequence AAGGCATT, the “PBM E-score” value is -0.215.

As to CCTTATTA, the “PBM E-score” value is -0.192.

As for AATTGACT, the “PBM E-score” value turned out to be 0.391.

For the sequence CCCCAGAG, the “PBM E-score” value is -0.256.

As for ACCCACTC, the “PBM E-score” value is 0.0711.

As to AAAGGTGT, the “PBM E-score” value is -0.235.

Take CAGGACTC: the “PBM E-score” value came to 0.344.

Consider CACGTACC, for which the “PBM E-score” value was -0.0805.

For the sequence ATCGGCCA, the “PBM E-score” value is -0.308.

On to ACCAGCCA, for which the “PBM E-score” value was -0.107.

In the case of CGTGTCAC, the “PBM E-score” value was 0.042.

As to GACGACGC, the “PBM E-score” value is -0.226.

As for ATACGTCA, the “PBM E-score” value was -0.17.

In the case of AGCGGTCG, the “PBM E-score” value is -0.295.

Consider ACCTCCCA, for which the “PBM E-score” value was -0.288.

Consider AAACTTGC, for which the “PBM E-score” value was -0.178.

On to ATGTTCTA, for which the “PBM E-score” value was -0.248.

Regarding GACTGACC, the “PBM E-score” value came to 0.275.

With ACCCACAA, the “PBM E-score” value turned out to be 0.0505.

Consider AGAGCAGC, for which the “PBM E-score” value was -0.168.

Consider CAACTCGG, for which the “PBM E-score” value is -0.0505.

As to TCCATTCA, the “PBM E-score” value worked out at 0.0233.

As for GGCTGCTA, the “PBM E-score” value was -0.134.

On to GCACTAGC, for which the “PBM E-score” value is -0.322.

Take CCGCCCTC: the “PBM E-score” value is -0.226.

In the case of GACCAATA, the “PBM E-score” value is -0.0845.

As for AGTGCCAT, the “PBM E-score” value is -0.338.

CCGTCGGA: the “PBM E-score” value is -0.124.

In the case of ACCATGCT, the “PBM E-score” value is -0.138.

With CAAGTTTC, the “PBM E-score” value worked out at 0.0574.

CTAGCTGC: the “PBM E-score” value is -0.0956.

CCTGTCCG: the “PBM E-score” value is -0.141.

CGGGAGCC: the “PBM E-score” value was -0.115.

Turning to GTGCAAAC, the “PBM E-score” value is -0.0612.

As to GGAAGGCC, the “PBM E-score” value was -0.372.

Consider CCTGCTTC, for which the “PBM E-score” value was -0.33.

For the sequence CATATGCA, the “PBM E-score” value is -0.0759.

As to GTGTAGCA, the “PBM E-score” value is -0.126.

As for ACCCAAAG, the “PBM E-score” value is -0.00336.

Consider CAAGAGTG, for which the “PBM E-score” value was -0.108.

As for AGCTTAGA, the “PBM E-score” value is -0.00982.

For AGGTGATA, the “PBM E-score” value was -0.16.

CGTCAACA: the “PBM E-score” value was -0.189.

On to AGCTTACT, for which the “PBM E-score” value worked out at 0.0931.

As for TACGAAGA, the “PBM E-score” value came to 0.154.

In the case of ACATATTG, the “PBM E-score” value is -0.0214.

With AAGGCAGC, the “PBM E-score” value is -0.125.

CCAGAAAG: the “PBM E-score” value came out at 0.0675.

CACCCGGG: the “PBM E-score” value was -0.0964.

With CAGCAACA, the “PBM E-score” value is -0.0296.

Turning to CCGGGCAC, the “PBM E-score” value is -0.312.

As for AGGCACCC, the “PBM E-score” value is -0.187.

For the origin of these results see the supplement of paper PMC3334620.
